Test results published in PubChem BioAssay AID686971 (National Center for Advancing Translational Sciences (NCATS), 2013).
Hit rate of the full screen: of about 360,000 compounds, about 7,500 (2.1%) were called active. Inconclusive means that the source gave no clear call. Such entries were picked first, then a sample of the others. Calls come from the whole dose curve; as a rule, active = well fitted cell-killing curve with a large enough effect; inconclusive = small, poorly fitted or top-dose-only effect, or effect the other way, or another doubt; inactive = no such curve, though single readings can be large or run the other way. Potencies of inconclusive entries are left out as doubtful fits.

assay: qHTS for induction of synthetic lethality in tumor cells producing 2HG: qHTS for the HT-1080-IDH1KD cell line; conditions: HT-1080 IDH1 knockdown viability, ATP luminescence, 48 h; activity, negative = toxicity: at 46.1 µM (top of the series) unless noted;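 for activity, negative = toxicity: 0% = DMSO wells and -100% = cell-free medium wells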
Method in brief: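 Viability of IDH1-knockdown HT-1080 fibrosarcoma cells was assessed by CellTiter-Glo after 48 h at 37 °C with titrated compound; concentration-effect curves were classified by fit quality and response size.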
Potency is the fitted concentration of half-maximal effect; tags give direction and shape of the fitted curve.

Structure (SMILES) | Potency | activity, negative = toxicity
Oc1ccc(Br)cc1CNc1ccccn1 | inconclusive [cytotoxic, single point] | 
CC1(C(=O)Nc2cccc3c2CCCC3)CCN1C(=O)CCc1ccc(Cl)cc1Cl (stereo not drawn) | inconclusive [cytotoxic, single point] | 
O=C(NC1CCCCC1)N1CCC(c2nc3ccc(Cl)cc3[nH]2)CC1 | inconclusive [cytotoxic, single point] | 
O=C(COc1ccc(F)cc1Cl)Nc1ccc(S(=O)(=O)Nc2nccs2)cc1 |  | inactive: 5.66%
On1c(-c2ccc(Cl)cc2)nc2ccccc21 |  | inactive: 0.126%
CCOc1ccc(C2Sc3ccccc3NC3=C2C(=O)OC3)cc1 (stereo not drawn) | inconclusive [cytotoxic, single point] | 
COC(=O)C1CCN(C(=O)c2cc(-c3ccc(Cl)s3)nc3ccccc23)CC1 | inconclusive [cytotoxic, single point] | 
CSc1nc(Oc2ccc3ccccc3c2)c2ccccc2n1 | inconclusive [cytotoxic, single point] | 
CCn1cc(C(=O)NCc2ccccc2)c(=O)c2cc(F)c(N3CCN(C(=O)c4ccco4)CC3)cc21 | inconclusive [cytotoxic, single point] | 
CC(C)(O)C#Cc1ccc([C@@H]2C[C@H]3CN(c4ccccc4)C(=O)[C@]34CCCN24)s1 | inconclusive [cytotoxic, single point] | 
CCOCC(=O)Nc1ccc(-c2cn3cccnc3n2)cc1 |  | inactive: 22.2%
CCC1(CC)Cc2ccccc2-c2nc(NCCO)[nH]c(=O)c21 | inconclusive [cytotoxic, single point] | 
CCOC(=O)c1ccc(S(=O)(=O)NCC(c2ccc(N(C)C)cc2)c2c[nH]c3ccccc23)cc1 (stereo not drawn) | inconclusive [cytotoxic, single point] | 
COc1ccccc1C1(CC(=O)Nc2nccs2)CCOC(C(C)C)C1 (stereo not drawn) | inconclusive [cytotoxic, single point] | 
CCC(C(=O)NC1CCCC1)n1c(-c2ccnc3ccccc23)nc2ccccc21 (stereo not drawn) |  | inactive: -16.6%
O=C(CSc1ccccc1Cl)NC1CCCc2ccccc21 (stereo not drawn) |  | inactive: -0.319%
O=S(=O)(c1ccc(N=C2NN=C(c3cc(F)ccc3F)CS2)cc1)N1CCOCC1 | active: 16.4 µM | 
CCOC(=O)c1c(NC(=O)CSc2nnc(-c3cccnc3)n2Cc2ccco2)sc(C)c1C | inconclusive [cytotoxic, single point] | 
COc1ccc(-c2nnc(SCc3ccc(C(=O)O)cc3)n2N)cc1 | inconclusive [rising, single point] | 
N#CC1=CN(Cc2ccccc2)C=C(/C=N/Nc2ccccc2)C1 | inconclusive [cytotoxic, partial curve] | 
COc1ccc(N2CCN(C(=O)c3ccc(CS(=O)(=O)c4ccccc4C)o3)CC2)cc1 | inconclusive [cytotoxic, single point] | 
Cn1c(Cl)cnc1C1CC(=O)c2cc(Cl)ccc2O1 (stereo not drawn) | active: 9.2 µM | 
Cc1cccc2c(C(=O)N3CCN(c4ccccc4)CC3)cc(-c3ccncc3)nc12 | active: 1.3 µM | 

Structure (SMILES) | Potency | activity, negative = toxicity
O=c1c2ccccc2nc(COc2ccccc2)n1/N=C/c1ccc(O)cc1O | inconclusive [cytotoxic, single point] | 
Cc1cc(NC(=O)c2cc(-c3ccncc3)nc3c(C)cccc23)no1 | active: 3.66 µM | 
OC(CNc1ncnc2sccc12)c1ccccc1 (stereo not drawn) | inconclusive [cytotoxic, partial curve] | 
NC(=O)c1ccc(NC(=O)COC(=O)/C=C/c2cccs2)cc1 | inconclusive [cytotoxic, single point] | 
Cc1cccc(C)c1Nc1nnc(SCc2nc3ccccc3c(=O)[nH]2)s1 | inconclusive [cytotoxic, single point] | 
CC1CCCN(c2ccc(C(=O)NCc3ccc4c(c3)OCO4)cc2[N+](=O)[O-])C1 (stereo not drawn) |  | inactive: 3.82%
COc1ccc(NC(=O)CS(=O)(=O)c2cccc(Cl)c2)cc1 |  | inactive: 10.1%
CC(C)(C)OC(=O)NNc1c2ccccc2nc2ccccc12 | inconclusive [cytotoxic, single point] | 
O=C(NC1CCCC1)C(c1ccccc1)n1c(-c2cccc3ccccc23)nc2ccccc21 (stereo not drawn) | inconclusive [cytotoxic, single point] | 
S=c1nc(-c2ccccn2)c(-c2ccccn2)n[nH]1 | inconclusive [rising, single point] | 
Cc1cc(N2CCN(C)CC2)nc2ccc(NC(=O)CCC(=O)N3CCN(c4ccc([N+](=O)[O-])cc4)CC3)cc12 | active: 16.4 µM | 
Cc1cc(C)c(C#N)c(Nc2ccccc2)n1 | inconclusive [cytotoxic, single point] | 
CC(C)c1ccc(/C=C/C(=O)CCC(=O)O)cc1 | inconclusive [cytotoxic, single point] | 
COc1ccc(C(=O)Nc2ccc(Cn3ccnc3)cc2)cc1OC | inconclusive [cytotoxic, partial curve] | 
COc1cc(Cn2c3ccc(NC(=O)NCc4ccc(F)cc4)cc3c(=O)n2C)ccc1F | inconclusive [cytotoxic, full curve] | 
COc1ccc(S(=O)(=O)N2CCCOC2CNC(=O)C(=O)NCCc2ccco2)cc1C (stereo not drawn) | active: 18.4 µM | 
CC(C)(C)c1ccc(OCc2ccc(C(=O)N/N=C3\CC4CC=CC34)cc2)cc1 (stereo not drawn) | inconclusive [cytotoxic, partial curve] | 
Nc1ccn([C@@H]2O[C@H](CNCc3cc(Cl)ccc3OCc3ccc(Cl)cc3)[C@@H](O)[C@H]2O)c(=O)n1 |  | inactive: -0.932%
C(#Cc1ccccc1)C[N+]1(CC#Cc2cccc3ccccc23)CCCC1 | inconclusive [cytotoxic, single point] | 
CC1(C(=O)N2CCC(CC3CC(c4ccc(Cl)cc4)=NO3)(C(=O)NCC3CCCCC3)CC2)CC1 (stereo not drawn) |  | inactive: -9.62%
Cc1nc(-c2ccc(NC(=O)c3ccco3)cc2)cs1 | inconclusive [cytotoxic, partial curve] | 
C/C(=N\NC(=O)c1ccc(NS(=O)(=O)c2cccs2)cc1)c1ccc(O)cc1O | active: 23.1 µM | 
Cc1cc(Cl)ccc1NC(=S)NCCc1ccc(Cl)cc1 | inconclusive [cytotoxic, single point] | 

Structure (SMILES) | Potency | activity, negative = toxicity
C1=C(CCNc2nnnn2-c2ccccc2)CCCC1 |  | inactive: -22.7%
COc1cccc(/C=N/n2cnc3cc(C)c(C)cc32)c1OC | inconclusive [cytotoxic, single point] | 
Cc1ccc(C)c(N2CCN(c3nnnn3-c3ccccc3)CC2)c1 | inconclusive [cytotoxic, single point] | 
Cc1cc(/C=C(\C#N)C(=O)NCc2cccs2)c(C)n1-c1ccccc1F | inconclusive [cytotoxic, partial curve] | 
CC(=O)NC(c1ccc(F)c(F)c1)c1nc(-c2cccc(C(C)C)c2)cs1 (stereo not drawn) | inconclusive [cytotoxic, single point] | 
CCCOc1ccc(-c2c(C(=O)N/N=C/c3ccncc3)nnn2-c2nonc2N)cc1 | inconclusive [cytotoxic, single point] | 
Cc1cc(C)c2c(=O)n(CC(=O)Nc3ccc(Cl)cc3)sc2n1 | inconclusive [cytotoxic, single point] | 
CC(=O)Nc1cccc(Oc2cc(C#N)c(C#N)cc2N2CCCCCC2)c1 | inconclusive [cytotoxic, single point] | 
Cc1[nH]n(-c2ccc(Cl)cc2)c(=O)c1C=Nc1ccc(S(=O)(=O)N2CCOCC2)cc1 | inconclusive [cytotoxic, single point] | 
CC1(Cc2cc(Cl)ccc2C(F)(F)F)C(=O)Nc2ccc(S(=O)(=O)NC3CCCCC3)cc21 (stereo not drawn) | inconclusive [cytotoxic, single point] | 
N#C/C(=C/c1cccc(O)c1)C(=O)NCc1ccc(Cl)cc1 | inconclusive [cytotoxic, single point] | 
CC1CC(C)CN(C(=O)c2ccc3c(c2NCCO)C(=O)c2ccccc2C3=O)C1 (stereo not drawn) | inconclusive [cytotoxic, single point] | 
CCOC(=O)[C@]12CCC=C1N(Cc1ccc(Cl)cc1Cl)C(=O)[C@H](CC(=O)NCc1cccs1)C2 | inconclusive [cytotoxic, single point] | 
N#CC1=C(N)Nc2ncnn2C1c1ccc(F)cc1 (stereo not drawn) |  | inactive: 11.3%
OC(CNC1CCCCC1)CON=C1CCSc2c(Cl)cccc21 (stereo not drawn) | inconclusive [cytotoxic, partial curve] | 
CCc1ccc(S(=O)(=O)/N=C2\C=C(Nc3ccc(O)cc3)C(=O)c3ccccc32)cc1 | active: 2.91 µM | 
Cc1ccc(C(=O)N/N=C\c2ccc([N+](=O)[O-])o2)cn1 | inconclusive [cytotoxic, partial curve] | 
CCCNCc1nnc(-c2ccccc2Cl)o1 | inconclusive [rising, partial curve] | 
CNc1nc(N)c(C(=O)C23CC4CC(CC(C4)C2)C3)s1 | inconclusive [cytotoxic, single point] | 
COc1ccc(/C(C)=N/OCC(=O)Nc2nc3ccccc3s2)cc1 |  | inactive: -0.356%
NC(=S)N/N=C1/CCSc2ccc3ccccc3c21 | inconclusive [cytotoxic, single point] | 
Fc1ccccc1/C=N/Nc1ncnc2ccccc12 | inconclusive [cytotoxic, single point] | 
